# Measurements as given in the supplement of paper PMC10441789.
# The list shows a part of the results. Antibody binding of pooled human sera (four to six donors per pool; dilution not stated) to peptides of the Trypanosoma cruzi antigen TSSA on microarrays. Quantile-normalised fluorescence in arbitrary units, mean of duplicate arrays; higher = more binding. No active / inactive call. The uninfected pools are read here as the healthy donors of the same country. The strongest signals lie near the top of the scale (about 60,000).
# Test system: pooled sera of chronic Chagas disease patients, Argentina
# Assay: antibody binding signal (normalised fluorescence) (arbitrary fluorescence units); higher = stronger serum antibody binding to peptide
# Protocol: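 Microarray of 15-residue peptides over residues 30-55 of Trypanosoma cruzi TSSAII, each with 1 to 10 substitutions at naturally variable positions, probed with one serum pool per country.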
row,Sequence,antibody binding signal
1,GTEKKAATGEAPSPP,22800
2,TDNKPAAGETPSPSG,1700
3,GKENKAATGEAPSPP,28500
4,TPPSGKEKKTATGGT,6910
5,TPPSGTENKAAAGET,43200
6,GTDKKAAAGEAPSQP,5450
7,KDNKAATGETPSPSG,2620
8,GKDKKTAAGGAPSPS,211
9,KKAAAGETPSPSGAS,168
10,TENKPATGETPSQPG,44100
11,GTDNKAATGGAPSQP,672
12,KEKKAATGGTPSQPG,336
13,TDNKPAAGGTPSQPG,1040
14,TENKPAAGEAPSQPG,44600
15,TPPSGTDNKTAAGGT,46000
16,PSGTENKPAAGGAPS,53300
17,GTENKTATGEAPSPS,26700
18,SGTENKPATGETPSP,39700
19,GKEKKPATGGTPSPP,7370
20,KEKKPAAGEAPSPSG,199

row,Sequence,antibody binding signal
1,GKENKTATGGAPSPS,2730
2,KDNKTATGETPSPSG,946
3,SGKDKKPATGGTPSQ,1100
4,TENKAAAGGAPSPSG,38500
5,GTEKKTAAGGTPSQP,747
6,SSTPPSGTENKAATG,49200
7,KKAAAGGAPSPSGAS,223
8,TDKKTATGGTPSPSG,827
9,KENKAATGGAPSPPG,351
10,KKPATGEAPSQSGAS,23800
11,SGKDKKAAAGETPSQ,544
12,TDKKTATGGAPSQPG,1340
13,PPSGKDNKPATGGAP,1140
14,GKEKKAAAGGAPSQS,932
15,GTENKAAAGETPSPS,37100
16,GKENKAAAGEAPSPS,13100
17,GTEKKTAAGETPSPS,348
18,GTDNKAAAGGTPSQP,331
19,KENKTATGEAPSQPG,15600
20,DNKTAAGEAPSQPGA,6840
